Source: PMC4336329 (PLoS ONE, 2015)
In all, about 310,000 compounds went through this assay and about 14,000 (4.5%) showed an effect of 50% or more. The effect is printed as a negative number. This is one part of the list.

biological target: human ether-à-go-go-related gene (hERG) potassium channel (human, UniProt Q12809); experiment: primary screen, population patch clamp on CHO cells stably expressing hERG
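Further: peak tail current of the secondary pulse compared with the same well before compound.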

Chain of human ether-à-go-go-related gene (hERG) potassium channel (Q12809 whole entry, looked up): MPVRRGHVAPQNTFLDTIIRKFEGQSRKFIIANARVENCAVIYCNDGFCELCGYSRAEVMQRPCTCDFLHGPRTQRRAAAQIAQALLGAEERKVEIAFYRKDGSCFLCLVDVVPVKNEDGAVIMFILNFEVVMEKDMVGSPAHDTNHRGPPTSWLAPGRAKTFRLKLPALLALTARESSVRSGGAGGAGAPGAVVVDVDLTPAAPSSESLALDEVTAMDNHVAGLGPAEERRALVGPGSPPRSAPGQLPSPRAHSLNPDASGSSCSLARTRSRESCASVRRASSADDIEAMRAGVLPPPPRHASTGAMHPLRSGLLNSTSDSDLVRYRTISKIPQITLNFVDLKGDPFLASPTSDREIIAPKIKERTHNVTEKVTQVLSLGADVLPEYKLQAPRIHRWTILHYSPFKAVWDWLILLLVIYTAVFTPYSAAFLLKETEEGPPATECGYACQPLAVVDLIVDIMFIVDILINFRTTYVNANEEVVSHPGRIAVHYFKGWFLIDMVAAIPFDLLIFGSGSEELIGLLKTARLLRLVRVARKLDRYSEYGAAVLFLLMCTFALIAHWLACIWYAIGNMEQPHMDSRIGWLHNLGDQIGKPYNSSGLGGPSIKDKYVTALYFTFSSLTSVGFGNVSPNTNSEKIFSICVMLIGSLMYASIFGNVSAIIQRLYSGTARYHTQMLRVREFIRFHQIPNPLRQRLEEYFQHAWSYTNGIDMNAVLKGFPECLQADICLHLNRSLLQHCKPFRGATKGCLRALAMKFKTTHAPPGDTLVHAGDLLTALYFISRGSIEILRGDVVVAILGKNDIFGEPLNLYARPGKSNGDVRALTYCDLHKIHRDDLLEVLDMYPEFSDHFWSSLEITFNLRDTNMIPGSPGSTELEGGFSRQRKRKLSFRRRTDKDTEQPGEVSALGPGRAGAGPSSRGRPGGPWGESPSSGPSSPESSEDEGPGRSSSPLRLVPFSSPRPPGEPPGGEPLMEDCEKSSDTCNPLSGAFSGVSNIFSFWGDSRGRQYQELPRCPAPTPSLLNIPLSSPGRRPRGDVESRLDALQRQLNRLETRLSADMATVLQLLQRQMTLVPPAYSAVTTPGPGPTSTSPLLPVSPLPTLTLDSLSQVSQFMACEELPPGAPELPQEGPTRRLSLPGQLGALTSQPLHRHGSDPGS

SMILES | hERG current change (%, negative = inhibition) at 10uM [%]
O=[N+]([O-])c1ccccc1Oc1ccccc1Cl | -10.3
O=C1C(Cc2cccc([N+](=O)[O-])c2)SC(=Nc2ccccc2)N1c1ccccc1 (stereo not drawn) | 3.53
CCOc1ccc(N/C=C/C(=O)c2ccc3ccccc3c2)c([N+](=O)[O-])c1 | -0.584
Cc1cc(C(=O)COC(=O)C2=NNC(=O)CC2)c(C)n1-c1ccc(OC(F)F)cc1 | -48.4
O=C(COc1ccccc1O)N1CCN(C(=O)c2ccco2)CC1 | -24.8
Cc1ccc(Nc2ncc(C(=O)NCCCN3CCN(C)CC3)c3ccccc23)cc1Cl | -61.1
CCn1nnnc1-c1ccc(OC)c(S(=O)(=O)NCCc2ccccc2)c1 | -10.9
CC(C)Nc1nc(C#N)nc(NC(C)C)n1 | 0.219
COc1ccc(NC(=O)Nc2nnc(Cc3ccc(F)cc3)s2)cc1 | 19.5
COc1ccc(NS(=O)(=O)c2ccc3ccccc3c2)c2ncccc12 | 13
C/C(N)=C(/C#N)C(=O)COC(=O)c1cccc2ccccc12 | -8.17
CNC(=S)Nc1ccc2[nH]c(=O)[nH]c2c1 | 47.5
CCC(=O)N1CCc2cc(S(=O)(=O)CCC(=O)Nc3nc(C)cs3)ccc21 | -15.5
Cc1cc(F)c(F)c(C(=O)N2C(C)CCCC2C)c1Cl (stereo not drawn) | -21.7
Cc1ccc(S(=O)(=O)NCCSc2ccccc2)cc1[N+](=O)[O-] | -0.246
CC(=O)c1ccc(Nc2c3c(c(C#N)c4nc5ccccc5n24)CCC3)cc1 | -73.2
Cc1nnc(SCC(=O)Nc2ccc3c4c(cccc24)CC3)n1C | 12.5
CCCCC(=O)NC(=S)Nc1ccccc1N1CCCCC1 | -13.9
Cc1ccc(S(=O)(=O)N2CCC(C(N)=O)CC2)cc1C(=O)NC1CCCCC1 | 18.9
COc1cc(OC)c(C(=O)Nc2ccc3ccccc3c2)cc1OC | 12.2
CSCCC(NS(=O)(=O)c1ccc(C)cc1)C(=O)NC1CCCCCC1 (stereo not drawn) | 10
Cn1c2ccccc2c2cc(C(=O)NNS(=O)(=O)c3ccc(F)cc3)sc21 | -5.97
Cc1ccccc1NC(=O)CCCn1nc(C)c2c(C)n(-c3ccccc3)nc2c1=O | 3.18

SMILES | hERG current change (%, negative = inhibition) at 10uM [%]
CCOC(=O)N1CCN(C(=O)CCCCCn2c(=S)[nH]c3cc4c(cc3c2=O)OCO4)CC1 | 28.1
CC(C)[C@H](NC(=O)c1cccc(CN(Cc2ccccc2)C(=O)c2ccccc2)c1)C(=O)O | 6.06
Cc1ccc(OCCNC(=O)c2cncc(Br)c2)cc1C | -1.46
O=C(CCN1C(=O)/C(=C/c2ccc(Cl)cc2)SC1=S)Nc1cccc(C(=O)O)c1 | 10.4
COC(=O)N/N=C/c1cc(C)n(-c2ccc(F)cc2)c1C | 4.9
CC(=O)Nc1ccc(S(=O)(=O)N2CCC(C(=O)NC3CC3)CC2)cc1 | 13
Cc1ccc(NS(=O)(=O)c2ccc(NC(=O)c3ccccc3C(=O)O)cc2)cc1C | 22.1
COc1cc(CN2CCN(Cc3cn(C)c4ccccc34)CC2CCO)cc(OC)c1 (stereo not drawn) | -43.7
CCOC(=O)CNC(=O)c1c(C)nn(C)c1Cl | 12.6
CCOc1ccc(N2C(=O)/C(=C/c3ccc(C)o3)N(C)C2=S)cc1 | 10.5
CCc1ccccc1NC(=O)Nc1c(C)n(C)n(-c2ccccc2)c1=O | -20.9
CCOC(=O)N1CCN(C(=O)Cc2ccccc2[N+](=O)[O-])CC1 | 11.2
COc1cc(C2CC(=O)Nc3n[nH]c(-c4ccccc4)c32)cc(OC)c1OC (stereo not drawn) | -3.57
Cc1ccc(Cn2nnc3c(=O)n(CC(=O)N4CCN(c5ccccc5)CC4)cnc32)cc1 | -21.4
Cc1ccc2[nH]c3c(c2c1)CC/C(=C/c1ccccc1)C3=O | 7.54
CSc1nsc(SCC(=O)NCc2ccccc2)n1 | 12
O=C(CSc1cccc2cccnc12)Nc1cccc(S(=O)(=O)N2CCOCC2)c1 | -16.4
COc1ccc(OCCC(=O)OCC(=O)NC2CCCCCCC2)cc1 | -5.48
Nn1cc(-c2ccccc2)nc1SCC(=O)Nc1cccc(S(N)(=O)=O)c1 | 4.38
COc1cccc(OC)c1OCCCCN1CCCC1 | -2.47
COc1ccc(S(=O)(=O)N2CCSC2C)cc1C (stereo not drawn) | 7.4
COc1ccc2c(c1)-c1c(sn(-c3ccccc3)c1=S)C(C)(C)N2 | -1.28
